For orientation: viability, T/C means the ratio of treated to control. As a reminder, the IC50 is the point on the concentration scale where inhibition reaches its midpoint.

Some entries of the source have several records that differ or are many. The list is limited to them. There may be further records. Results that share an entry repeat one measurement in other runs, samples, wells, individuals or studies.

The subject of this test is 958667-338-R-J2-PDC tumor spheroids viability. The test is described as follows: Anticancer human tumor 958667-338-R-J2-PDC patient-derived colon adenocarcinoma cell line growth inhibition [PI3K]. To be noted: spheroids with HUVEC and MSC; for viability, T/C: stronger effect = lower value. An excerpt: Combinatorial screen of targeted agents with the PI3K inhibitors inavolisib, alpelisib, duvelisib, and copanlisib in multi-cell type tumor spheroids
A high-throughput screen of multi-cell type tumor spheroids was designed to identify active combinations of targeted small molecules and PI3K pathway inhibitors. Complex spheroids include a stromal component modeled by human endothelial cells (HUVEC) and fibroblasts modeled by human mesenchymal stem cells (MSCs). The concentration ranges selected for each drug and investigational agent were based upon clinically achievable concentrations if the clinical Cmax of the agent was known.
Compounds. The drugs and investigational agents: inavolisib (NSC800729), alpelisib (NSC765974), duvelisib (NSC772469), copanlisib (NSC816437), ipatasertib (NSC767898), afuresertib (NSC778305), talazoparib (NSC767125), sapanisertib (NSC764658), selumetinib (NSC741078), tovorafenib (DAY101, NSC766906), vemurafenib (NSC761431), ravoxertinib (NSC781343), sotorasib (NSC818433), MRTX1133 (NSC 836407), abemaciclib (NSC 768073), palbociclib (NSC758247), venetoclax (NSC 766270), SY5609 (NSC837396), enzalutamide (NSC755605), and darolutamide (NSC825331), were obtained from the National Cancer Institute (NCI) Developmental Therapeutics Program Chemical Repository. The FDA-approved anticancer drug set is available from the NCI Developmental Therapeutics Program. […] The stock solutions were prepared in dimethyl sulfoxide (DMSO, Sigma-Aldrich, St. Louis, MO, cat. D2650) at 800-fold the tested concentration and stored at -70 degrees C prior to their use. All drugs and investigational agents were tested over a range starting from a high concentration at or near the clinical Cmax and decreasing in half-log increments. If the clinical Cmax for an agent had not been determined, the highest concentration tested was 10 microM.
Cell Culture. All cells were maintained in an incubator at 37 degrees C and 5% CO2 with 95% humidity. The PDC lines were cultured according to standard operating procedures established by the NCI PDMR (https://pdmr.cancer.gov/sops/default.htm). All PDCs were thawed and cultured in Matrigel-coated flasks prepared with a working solution of 1X Ham's F-12 nutrient mix, without supplementation (Invitrogen, Waltham, MA, cat. 11765054), 100 U/mL penicillin-streptomycin (Invitrogen, cat. 15140122), and 2.5% Matrigel (Corning Inc., Corning, NY, cat. 354248) for the first three passages. The 354836-022-R-J1-PDC, 475296-252-R-J1-PDC, and 997726-040-R-J2-PDC lines were cultured in 6A media, which includes advanced DMEM/F-12 (Thermo Fisher Scientific, cat. 12634028), 10 mM HEPES (Thermo Fisher Scientific, cat. 15630080), 1X GlutaMAX supplement (Thermo Fisher Scientific, cat. 35050061), 0.1 mg/mL primocin (InvivoGen, San Diego, CA, cat. ant-pm-2), 10% defined fetal bovine serum, heat inactivated (HyClone Laboratories Inc., Logan, UT, cat. SH30070.03HI), 50% L-WRN conditioned media (ATCC, cat. CRL-3276), 1.25 mM N-Acetyl-L-cysteine (Sigma-Aldrich, cat. A9165), 10 mM nicotinamide (Sigma-Aldrich, cat. N0636), 1X B-27 supplement (Thermo Fisher Scientific, cat. 17504044), 1X N-2 supplement (Thermo Fisher Scientific, cat. 17502048), and 10 microM Y-27632 dihydrochloride (Tocris Bioscience, Bristol, United Kingdom, cat. 1254). The 624824-186-R-J2-PDC line was cultured in 6C/Colon 1B media, which includes all 6A media components plus 50 ng/mL human EGF recombinant protein (Thermo Fisher Scientific, cat. PHG0311). […]
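Further: spheroids exposed to compounds for seven days before readout.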

For `CNC(=O)c1ccc(N2C(=S)N(c3ccc(C#N)c(C(F)(F)F)c3)C(=O)C2(C)C)cc1F`, the viability, T/C (compound alone 0.316 µM) is 94.5, 122, 114, 104%.
In the case of `CC1(C)CCC(CN2CCN(c3ccc(C(=O)NS(=O)(=O)c4ccc(NCC5CCOCC5)c([N+](=O)[O-])c4)c(Oc4cnc5[nH]ccc5c4)c3)CC2)=C(c2ccc(Cl)cc2)C1`, the viability, T/C runs as follows: (compound alone 0.0316 µM) 124, 96.4, 117, 120%; (compound alone 0.1 µM) 90.8, 76.9, 107, 94.1%; (compound alone 10 µM) 24.6, 62.6, 57.3, 27.3%.
Take `CC(=O)c1c(C)c2cnc(Nc3ccc(N4CCNCC4)cn3)nc2n(C2CCCC2)c1=O`: the viability, T/C (compound alone 0.001 µM) is listed as 79.8, 94, 89.4, 117%.
As for `Cn1ncnc1[C@H]1c2n[nH]c(=O)c3cc(F)cc(c23)N[C@@H]1c1ccc(F)cc1`, the viability, T/C (compound alone 0.01 µM) was 102, 96, 108, 82.2%.
In the case of `C=CC(=O)N1CCN(c2nc(=O)n(-c3c(C)ccnc3C(C)C)c3nc(-c4c(O)cccc4F)c(F)cc23)C(C)C1` (stereo unspecified), the viability, T/C runs as follows: (compound alone 0.0316 µM) 107, 105, 130, 95.7%; (compound alone 10 µM) 106, 126, 99.2, 119%.
Regarding `Cn1ncc(Cl)c1-c1cc(C(=O)NC(CN)Cc2cccc(F)c2)sc1Cl` (stereo unspecified), the IC50 (compound alone) is recorded as 1.91, 4.89, 4.59, 5.87 µM.
For `CC1(C)CCC(Nc2ncc(C(F)(F)F)c(-c3c[nH]c4c(P(C)(C)=O)c(C#N)ccc34)n2)CN1` (stereo unspecified), the viability, T/C is on record as 112, 83.4, 90.8, 92% (compound alone 0.1 µM) and 89.5, 96.9, 68.9, 85.3% (compound alone 0.316 µM).
`COc1c(OCCCN2CCOCC2)ccc2c3n(c(=NC(=O)c4cnc(N)nc4)nc12)CCN3`: for the setting “compound alone 0.01 µM”, the viability, T/C is on record as 79.5, 90.8, 73.4, 89.4, 100, 86.5, 83.9, 95.3%.
Consider `CC(C)n1nc(-c2ccc3oc(N)nc3c2)c2c(N)ncnc21`, for which the viability, T/C (compound alone 0.00316 µM) is listed as 99.8, 79.8, 105, 96.5%.
With `C[C@@H](NC(=O)c1ncnc(N)c1Cl)c1ncc(C(=O)Nc2cc(C(F)(F)F)c(Cl)cn2)s1`, the viability, T/C (compound alone 1 µM) is 96.4, 118, 81.6, 116%.
As to `Cc1nc(NC(=O)N2CCCC2C(N)=O)sc1-c1ccnc(C(C)(C)C(F)(F)F)c1` (stereo unspecified), the viability, T/C (compound alone 0.0316 µM) is on record as 92.7, 100, 101, 116, 104, 76.8, 83.8, 99.7%; the viability, T/C (compound alone 0.1 µM) is recorded as 84.8, 79.6, 99.9, 97.7, 103, 91.7, 77.8, 88.9%; the viability, T/C (compound alone 0.316 µM) is 90.8, 96.6, 95.3, 83.8, 108, 103, 75.9, 106%; the viability, T/C (compound alone 1 µM) is given as 93.2, 74.2, 82.5, 86.7, 84.9, 99.5, 75.7, 89.3%.
For the compound `Cn1cnc2c(F)c(Nc3ccc(Br)cc3Cl)c(C(=O)NOCCO)cc21`, the viability, T/C (compound alone 0.03 µM) is reported as 74, 94.4, 68, 67.5%.
As to `CC(Nc1ncnc2nc[nH]c12)c1cc2cccc(Cl)c2c(=O)n1-c1ccccc1` (stereo unspecified), the viability, T/C is on record as 85.2, 94.8, 86.5, 109, 86.6, 82.5, 101, 81.6% (compound alone 0.0316 µM); 91.8, 105, 91.1, 113, 84.2, 103, 92.3, 84% (compound alone 0.316 µM); 111, 91.8, 87.7, 84, 91.2, 93.2, 90.9, 102% (compound alone 3.16 µM).
Turning to `CC(Nc1ccc2c(c1)OCCn1cc(N3C(=O)OCC3C(F)F)nc1-2)C(N)=O` (stereo unspecified), where the note is “compound alone 0.00316 µM”, the viability, T/C is 83.3, 99.4, 83.9, 102, 68.5, 113, 108%.
As to `Cn1nccc1Nc1nccc(-c2ccn(C(CO)c3ccc(Cl)c(F)c3)c(=O)c2)n1` (stereo unspecified), the viability, T/C (compound alone 0.1 µM) is reported as 103, 119, 87.2, 82.4% and the viability, T/C (compound alone 10 µM) is on record as 70.7, 86.3, 73.8, 50.1%.
Regarding `CCCS(=O)(=O)Nc1ccc(F)c(C(=O)c2c[nH]c3ncc(-c4ccc(Cl)cc4)cc23)c1F`, where the note is “compound alone 0.0316 µM”, the viability, T/C is recorded as 95.3, 105, 111, 81.2%.

The record behind these values is PubChem BioAssay AID1963963 (Molecular Pharmacology Branch, DTP, NCI, 2024).
